# Laboratory results from paper PMC4336329 (PLoS ONE, 2015).
# The campaign covered roughly 310,000 compounds. About 14,000 (4.5%) showed an effect of 50% or more. The effect is printed as a negative number. This is one part of the list.
# Target: human ether-à-go-go-related gene (hERG) potassium channel (human, UniProt Q12809)
# Assay: primary screen, population patch clamp on CHO cells stably expressing hERG
# 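Note: peak tail current of the secondary pulse compared with the same well before compound.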
# human ether-à-go-go-related gene (hERG) potassium channel, sequence (Q12809 whole entry, looked up): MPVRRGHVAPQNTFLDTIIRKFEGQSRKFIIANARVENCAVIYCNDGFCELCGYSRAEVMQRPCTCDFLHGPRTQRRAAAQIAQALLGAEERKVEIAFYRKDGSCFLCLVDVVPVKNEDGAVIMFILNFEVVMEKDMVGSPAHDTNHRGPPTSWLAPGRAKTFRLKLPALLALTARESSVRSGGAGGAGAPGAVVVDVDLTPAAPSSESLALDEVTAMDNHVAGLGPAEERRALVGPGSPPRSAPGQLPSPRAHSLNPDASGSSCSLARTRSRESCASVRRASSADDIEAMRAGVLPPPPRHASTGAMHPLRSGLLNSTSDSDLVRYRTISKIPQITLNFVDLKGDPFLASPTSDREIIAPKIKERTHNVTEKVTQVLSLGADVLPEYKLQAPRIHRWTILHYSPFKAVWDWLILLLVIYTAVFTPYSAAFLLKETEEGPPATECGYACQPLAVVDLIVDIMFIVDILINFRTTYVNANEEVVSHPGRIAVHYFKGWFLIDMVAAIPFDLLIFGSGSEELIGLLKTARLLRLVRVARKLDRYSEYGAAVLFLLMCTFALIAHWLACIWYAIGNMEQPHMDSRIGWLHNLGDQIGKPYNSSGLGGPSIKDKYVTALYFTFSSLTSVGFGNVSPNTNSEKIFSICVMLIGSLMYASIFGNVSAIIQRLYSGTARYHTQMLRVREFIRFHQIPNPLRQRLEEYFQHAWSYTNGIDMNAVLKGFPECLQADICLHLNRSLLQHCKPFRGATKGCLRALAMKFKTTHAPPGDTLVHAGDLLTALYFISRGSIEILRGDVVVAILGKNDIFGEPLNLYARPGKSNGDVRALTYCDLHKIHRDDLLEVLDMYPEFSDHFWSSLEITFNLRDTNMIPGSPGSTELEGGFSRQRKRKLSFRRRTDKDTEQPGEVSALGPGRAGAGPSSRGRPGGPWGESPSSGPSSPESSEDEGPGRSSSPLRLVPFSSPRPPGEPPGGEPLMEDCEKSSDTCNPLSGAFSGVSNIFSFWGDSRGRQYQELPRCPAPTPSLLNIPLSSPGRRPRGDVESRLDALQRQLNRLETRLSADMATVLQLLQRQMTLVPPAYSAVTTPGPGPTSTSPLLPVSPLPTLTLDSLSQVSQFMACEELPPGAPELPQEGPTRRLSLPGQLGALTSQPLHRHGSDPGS
row,Compound,"hERG current change (%, negative = inhibition) at 10uM [%]"
1,Cc1ccc(S(=O)(=O)Oc2ccccc2/C=N/O)cc1,-4.86
2,COc1cccc(C(c2sc3ncnn3c2O)N2CCN(C(=O)c3ccco3)CC2)c1 (centres unmarked),-37.2
3,CCOc1ccc(OCC)c(NC(=O)CN(c2ccc(OC)cc2)S(=O)(=O)c2c(C)noc2C)c1,19.4
4,CCc1nc2ccccc2c(C(=O)Nc2cc(C)ccc2C)c1C,-40.4
5,O=C(Cc1ccc(F)cc1)N1CCC2(CC1)NCCc1[nH]cnc12,14.1
6,N#Cc1nc(COc2ccccc2)oc1N1CCC(Cc2ccccc2)CC1,15.4
7,CSc1ncccc1C(=O)OCc1ccc(C#N)cc1.Cl,1.2
8,Cc1ccc(S(=O)(=O)N2CCC(C(=O)NCCCOC(C)C)CC2)cc1,-3.72
9,O=C(OCn1nnc2ccccc2c1=O)c1ccc(N2CCOCC2)c([N+](=O)[O-])c1,-13.5
10,CCN(CC)CC(C)CNC(=O)CN1C(=O)CSc2ccc(S(=O)(=O)N3CCOCC3)cc21 (centres unmarked),12.4
11,COc1ccccc1NC(=S)NNC(=O)c1cc(C)n(C)n1,12.6
12,N/C(=N\OC(=O)c1ccc(Cl)cc1Cl)c1ccncc1,0.0402
13,Cc1ccc(C(=O)Nc2ccnc(-c3cccnc3)n2)cc1,17.9
14,COc1cccc2cc(C(=O)Nc3cc(Cl)ccc3N3CCOCC3)c(=O)oc12,30.1
15,CCN(CC)S(=O)(=O)c1ccc2c(c1)c(=O)c(C(=O)NCCN(C)CCc1ccccc1)cn2C,-67.1
16,Cc1ccc([N+](=O)[O-])cc1NC(=O)CN(C(=O)c1ccccc1Cl)C1CCCCC1,-25.3
17,O=C(CCS(=O)(=O)c1ccccc1)N1CCN(c2ccccc2)CC1,-3.31
18,CCCn1cnc2c(N)c(C)c(C)cc21,3.71
19,O=S1(=O)CCN2C(c3ccc4c(c3)CCCC4)=CSC2=N1,4.9

row,Compound,"hERG current change (%, negative = inhibition) at 10uM [%]"
1,COc1ccc(Cl)cc1-n1c(=S)sc2c(=O)[nH]c(SCC(=O)C(C)(C)C)nc21,27.6
2,CCOc1ccc2nc(NC(=O)CSCC(=O)Nc3cc(C)on3)sc2c1,28.7
3,O=C(Nc1ccc(NC(=S)NC(=O)c2ccco2)cc1)c1ccccc1,-1.53
4,C=CCN(C(=O)CNC(=O)c1ccco1)C(C(=O)NC1CCCC1)c1ccc(OC)cc1 (centres unmarked),6.79
5,COCCNC(=O)CCC(=O)NNc1nc2ccccc2c2nc(C)nn12,0.57
6,O=C(c1cccs1)N(CC1CCCO1)c1nc(-c2ccccc2)cs1 (centres unmarked),2.57
7,COc1cc(NC(=O)CS(=O)(=O)c2ccc(C)cc2)cc(OC)c1OC,0.3
8,CCCc1ccc2oc(C(=O)N3CCC(C(N)=O)(N4CCCCC4)CC3)c(C)c2c1,-7.06
9,O=C(O)C(Oc1ccc2c(-c3ccccc3)cc(=O)oc2c1)c1ccccc1 (centres unmarked),10.1
10,Cc1cc2c(=O)n(C)c(SCC(=O)Nc3ccccc3)nc2s1,20
11,O=C(N/N=C/c1cccs1)C(=O)Nc1cccc(Cl)c1,24
12,CC1(C)Oc2ccc(C(=O)N3CCc4ccccc43)cc2N(CC(=O)N2CCCC2)C1=O,-8.36
13,CCN(c1ccccc1)S(=O)(=O)c1ccc(Cl)c(C(=O)NCCc2ccc(OC)cc2)c1,-18.1
14,Cc1cc(C)n(CCNS(=O)(=O)c2ccc(Cl)cc2)n1,-5.97
15,CCCCOC(=O)Nc1nccs1,25.9
16,O=C1c2cccc(Sc3ccccc3)c2C(=O)c2c(Sc3ccccc3)cccc21,2.51
17,COc1ccccc1NC(=O)c1nn(-c2cccc(C(F)(F)F)c2)ccc1=O,5.19
18,COc1ccc(CCNC(=O)CN(C)S(=O)(=O)c2ccc(Br)s2)cc1OC,-49.4
19,CC(C)(C)C(=O)Nc1ccc2oc(-c3cc(F)c(F)cc3Cl)nc2c1,14

row,Compound,"hERG current change (%, negative = inhibition) at 10uM [%]"
1,COc1ccc(NS(=O)(=O)c2ccc(C)cc2)c([N+](=O)[O-])c1,-15
2,O=S(=O)(N1CCOCC1)N1CCN(c2ccc(F)cc2)CC1,-31.9
3,O=C(N/N=C/c1cccc(Br)c1)c1ccc(N2CCCC2=O)cc1,-57.6
4,COc1cccc(-c2nnc(SCc3cccnc3)o2)c1,-6.61
5,CC(C)c1ccc(CNC(=O)C(=O)NCCCn2ccnc2)cc1,-7.7
6,COc1ccc(CNC(=O)C(C)NC(=O)c2cc3ccccc3o2)cc1 (centres unmarked),-12.1
7,CN(C)c1cccc(C(=O)OCC(=O)N(Cc2ccccc2)C2CCS(=O)(=O)C2)c1 (centres unmarked),-0.837
8,Cc1cc(Br)cn2cc(C(=O)O)nc12,31.8
9,COc1cccc(-c2nnc(N(C)C(=O)C3CCOC3)s2)c1 (centres unmarked),-13.1
10,CCOC(=O)c1c(C)[nH]c(C(=O)N/N=C/c2cccc(OC)c2)c1C,-1.43
11,CCS(=O)(=O)Nc1cccc(C2=NN(S(=O)(=O)c3ccc(F)cc3)C(c3cccs3)C2)c1 (centres unmarked),-4.12
12,C/C(=N\NC(=O)c1cccc(C)c1)c1cccc(NC(=O)c2ccco2)c1,-43.4
13,O=C(Oc1ccc(Cl)c2cccnc12)N1CCCCCC1,5.53
14,CCOC(=O)c1cc2occc2n1CC(=O)N1CCCc2ccccc21,-17.3
15,O=C(CSc1nnc(-c2ccncc2)n1-c1ccccc1)NC1CC1,4.69
16,Cc1cccc(C)c1NC(=O)CNC(=O)Cc1c[nH]c2ccccc12,9.32
17,COc1cc(C)c(C(C)C)cc1S(=O)(=O)NCCCn1ccnc1,-9.23
18,CCN(CC1COc2ccccc2O1)C(=O)c1ccc(Cl)c(S(=O)(=O)N2CC(C)OC(C)C2)c1 (centres unmarked),-35.3
